Laboratory results published in patent US20120197004A1, “NOVEL ANTI-MICROBIAL PEPTIDOMIMETIC COMPOUNDS AND METHODS TO CALCULATE ANTI-MICROBIAL ACTIVITY” (priority 2006, published 2012).
Where a SMILES comes first, the peptide text is derived from it. [ ]: non-standard residue; d: D form. ξ: configuration not given here. ξTic = O=C(O)C1Cc2ccccc2CN1; ξOic = O=C(O)C1CC2CCCCC2N1

Test: Maximum tolerated dose in mouse model
Type: in vivo
Settings: IP, dosed daily day 1-6
Description: Maximum Tolerated Dose: Six compounds were evaluated in an in vivo mouse model to determine the maximum tolerated dose for each compound by BIOCON, Inc. using the following protocol. For each compound 3 dose concentrations (1/5/25 mg/kg or 5/25/125 mg/kg) were administered IP, 1-2 times per day as split doses. Day 0 weigh the animals, day 1-6 dose daily and observe animals, day 7 weigh, euthanasia followed by necrotize to examine abdominal cavity.

With `CC(=O)NCC(=O)N[C@@H](Cc1ccccc1)C(=O)N1Cc2ccccc2CC1C(=O)N1C(C(=O)NCC(=O)N[C@@H](CCCCN)C(=O)N2Cc3ccccc3CC2C(=O)N2C(C(=O)NCC(=O)N[C@@H](Cc3ccccc3)C(=O)N3Cc4ccccc4CC3C(=O)N3C(C(=O)NCC(=O)N[C@@H](CCCCN)C(=O)N4Cc5ccccc5CC4C(=O)N[C@@H](CCCCN)C(=O)N[C@@H](CCCCN)C(=O)N[C@@H](CCCCN)C(=O)N[C@@H](CCCCN)C(N)=O)CC4CCCCC43)CC3CCCCC32)CC2CCCCC21` (stereo partly drawn) [FKAB-1G, Ac-GF-Tic-Oic-GK-Tic-Oic-GF-Tic-Oic-GK-Tic-KKKK-CONH2] (Ac-GF[ξTic][ξOic]GK[ξTic][ξOic]GF[ξTic][ξOic]GK[ξTic]KKKK-NH2) as the compound, how does the “Maximum Tolerated Dose/Toxicity 125 mg/kg” value read?
The value was “all animals lost weight and one animal died”.
